# Measured values as given in article PMC4336329 (PLoS ONE, 2015).
# The whole screen tested about 310,000 compounds, of which about 14,000 (4.5%) showed an effect of 50% or more. Effects have a minus sign here. The list shows a part of the results.
# Molecular target: human ether-à-go-go-related gene (hERG) potassium channel (human, UniProt Q12809)
# Test: primary screen, population patch clamp on CHO cells stably expressing hERG
# 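Also: peak tail current of the secondary pulse compared with the same well before compound.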
# human ether-à-go-go-related gene (hERG) potassium channel, sequence (Q12809 whole entry, looked up): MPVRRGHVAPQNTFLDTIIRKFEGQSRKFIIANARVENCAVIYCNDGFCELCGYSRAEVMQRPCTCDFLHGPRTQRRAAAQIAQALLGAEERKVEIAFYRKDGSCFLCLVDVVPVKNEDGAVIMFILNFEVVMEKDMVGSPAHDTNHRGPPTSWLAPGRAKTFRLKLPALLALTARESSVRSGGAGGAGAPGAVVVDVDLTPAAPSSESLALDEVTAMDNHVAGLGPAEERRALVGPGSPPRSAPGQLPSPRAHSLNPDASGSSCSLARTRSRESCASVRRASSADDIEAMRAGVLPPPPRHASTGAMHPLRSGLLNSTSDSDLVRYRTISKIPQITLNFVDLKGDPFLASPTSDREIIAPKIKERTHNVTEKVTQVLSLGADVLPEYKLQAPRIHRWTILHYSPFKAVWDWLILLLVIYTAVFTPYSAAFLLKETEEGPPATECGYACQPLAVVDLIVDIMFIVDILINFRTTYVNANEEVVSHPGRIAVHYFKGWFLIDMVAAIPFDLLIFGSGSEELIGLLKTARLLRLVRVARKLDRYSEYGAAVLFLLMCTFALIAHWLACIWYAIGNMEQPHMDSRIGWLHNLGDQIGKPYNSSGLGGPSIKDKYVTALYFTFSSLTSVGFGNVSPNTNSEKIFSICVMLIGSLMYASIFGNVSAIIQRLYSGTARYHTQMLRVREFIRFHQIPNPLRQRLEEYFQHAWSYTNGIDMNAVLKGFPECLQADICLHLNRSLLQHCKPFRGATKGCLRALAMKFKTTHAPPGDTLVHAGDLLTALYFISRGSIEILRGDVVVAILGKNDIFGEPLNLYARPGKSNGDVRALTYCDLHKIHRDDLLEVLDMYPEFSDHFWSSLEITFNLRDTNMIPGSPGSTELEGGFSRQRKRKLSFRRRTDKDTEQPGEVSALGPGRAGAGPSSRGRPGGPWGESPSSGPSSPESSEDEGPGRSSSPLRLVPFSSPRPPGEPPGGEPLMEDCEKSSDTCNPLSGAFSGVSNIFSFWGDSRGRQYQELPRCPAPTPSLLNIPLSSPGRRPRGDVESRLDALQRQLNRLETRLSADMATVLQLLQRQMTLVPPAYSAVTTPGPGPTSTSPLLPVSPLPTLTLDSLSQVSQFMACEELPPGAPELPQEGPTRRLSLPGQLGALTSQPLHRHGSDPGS
row,SMILES,"hERG current change (%, negative = inhibition) at 10uM [%]"
1,CCOCCCNC(=S)N1CCC(NC(=O)C23CC4CC(CC(C4)C2)C3)CC1,-2.22
2,CCC1CCCCN1C(=O)COC(=O)c1cc(Br)ccc1Cl (stereo not drawn),-7.89
3,O=S(=O)(/N=C(/Nc1cccc2ccccc12)c1ccccc1)c1ccccc1,-7.72
4,Cc1ccc(N(CC(=O)NCc2ccc3c(c2)OCO3)S(C)(=O)=O)cc1,-2.81
5,CCCCNS(=O)(=O)c1ccc(OC)c(C)c1,10.8
6,Cc1ccc(CN(Cc2ccc(C)o2)C(=S)NCC(=O)O)cc1,3.93
7,Cn1c(SCC(=O)Nc2ccccc2)nc2c([nH]c3ccccc32)c1=O,15.6
8,Cc1onc(-c2c(Cl)cccc2Cl)c1C(N)=S,12.8
9,NNC(=O)C1CCCN1S(=O)(=O)c1ccc(Cl)cc1 (stereo not drawn),-4.92
10,O=C(CSc1nc2ccc(Cl)cc2[nH]1)N1CCN(C(=O)c2ccco2)CC1,-56.1
11,C/C(=N\N=C1\NC(=O)CC(C(=O)O)S1)c1cccs1 (stereo not drawn),1.4
12,O=C(Nc1cccnc1)c1ccc(Cl)c(S(=O)(=O)N2CCCCC2)c1,-15.6
13,CNC(=O)Oc1ccc2c(c1)C(=O)c1ccccc1CO2,6.76
14,CC1=C(C(=O)Nc2ccc(F)c(F)c2)C(c2cccs2)NC(=S)N1 (stereo not drawn),4.53
15,Cc1cc(C)nc(NS(=O)(=O)c2ccc(N=NN(C)C)cc2)n1,1.26
16,COc1ccccc1NC(=O)CSc1nccn1Cc1ccc(F)cc1,-11.1
17,Cc1cccc(N2CCN(S(=O)(=O)c3ccc4c(c3)C(C)(C)C(=O)N4C)CC2C)c1 (stereo not drawn),-6.38
18,COc1ccc(-c2cc(C(=O)N3CCOCC3)no2)cc1,19.9
19,Cc1ccc(CSCc2ccc(C(=O)O)o2)cc1,21.8
20,C(=N\N1CCN(c2ccccn2)CC1)/C1=C(N2CCOCC2)C(=C/c2ccccc2)/CC1,13.9
21,Cc1cc(C)c(C(=O)Nc2ccc(Br)c(C(F)(F)F)c2)c(C)c1,12.1
22,C=CCNC(=O)c1ccc2c3n(nc2c1)-c1ccc(C)cc1CO3,-24.6
23,O=c1[nH]c2ccccc2c(O)c1Cc1ccccc1,9.83

row,SMILES,"hERG current change (%, negative = inhibition) at 10uM [%]"
1,CCOC(=O)C1=C(CN2CCN(C(=O)c3ccco3)CC2)NC(=O)NC1c1ccc(F)cc1 (stereo not drawn),-62.9
2,COc1ccccc1C(CNC(=O)C(C)(C)Oc1ccc(Cl)cc1)N1CCCC1 (stereo not drawn),-45.1
3,COCc1cc(Sc2ccc(OC)cc2)nc(-c2ccccc2)n1,23
4,Cn1c(O)c(N=NC(=O)c2cccc(S(=O)(=O)N3CCCCC3)c2)c2ccccc21,-16.1
5,CCCNC(=O)c1cccc(S(=O)(=O)N2CC3(C)CC2CC(C)(C)C3)c1 (stereo not drawn),-57.6
6,Cn1c(SCC(=O)Nc2nccs2)nnc1-c1ccncc1,-14.3
7,O=C(Nc1ccccc1)c1nc[nH]c1C(=O)N1CCc2ccccc2C1,3.15
8,CCOC(=O)c1ccc(N=Cc2c(O)n(-c3ccc(OC)cc3)c(=S)[nH]c2=O)cc1,22.1
9,Oc1ccccc1C=NCCN=Cc1ccccc1O,-7.43
10,CC(=O)c1cccc(NC(=O)NCc2ccco2)c1,-2.14
11,CCN1C(=O)C(=O)N(CC(=O)c2[nH]c(C)c(C(C)=O)c2C)C1=O,0.992
12,CCOC(=O)C(C)(CC)NC(=O)CSP(=S)(OCC)OCC (stereo not drawn),3.79
13,COC(=O)c1sc(NC(=O)c2oc3ccccc3c2C)nc1C,8.99
14,O=[N+]([O-])c1ccccc1S(=O)(=O)NC1CCCC1,7.33
15,CSc1ccc(Cl)c(C(=O)OCC(=O)N(C)CCC#N)c1,-15.2
16,COc1ccccc1NC(=O)Cn1cnc2c(oc3ccccc32)c1=O,-13.6
17,O=C(CSC1=NS(=O)(=O)c2ccccc2N1)Nc1ccccc1F,8.64
18,c1ccc(Cc2nnc(N3CCCCC3)c3ccccc23)cc1,-26.7
19,COc1ccc(NC(=S)N2CCN(C(=O)c3ccco3)CC2)cc1OC,14.6
20,CN(CCNC(=O)C1CCC(=O)N(Cc2cccc(F)c2)C1)CCc1ccccc1 (stereo not drawn),-46.3
21,COc1cccc2cc(C(=O)N3CCN(C(=O)c4ccco4)CC3)c(=O)oc12,0.583
22,COc1ccc(Br)cc1CNCCc1ccc2c(c1)OCO2,-60.7
